From the supplement of paper PMC11417369
± gives the standard deviation of the averaged measurements. The list shows a part of the results.

test system: PfAP2-G AP2 domain (GST-tagged); assay: gcPBM binding intensity (ln(normalized median fluorescence intensity)); higher = stronger DNA binding
Method in brief: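 An Agilent 4 × 180k array carrying primer-extended double-stranded 36-bp intergenic genomic probes and negative controls received GST-tagged P. falciparum DNA-binding domains expressed in E. coli, about 25 μg on average, for 1 h. The binding buffer contained 1× PBS, 1% milk, 0.2 mg/ml BSA, 0.5% salmon testes DNA and 0.03% Triton X-100. Binding intensity is the top Masliner-normalised natural-log median intensity across replicate spots of either probe orientation, read after Alexa488 anti-GST antibody staining and a 488 nm scan.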

Row | Sequence | gcPBM binding intensity (ln)
1 | TTTTCATTCTTTTCCTTTGATTTACAATAGTATATT [GTGCAC_negctrl_site687] | 9.85 ± 0.057
2 | TAAAAGTTCACCTGTACACACATATATATCTGTACA [CACACA_site5019] | 11.5 ± 0.59
3 | TCATTATATTATTCTTGTACTTATATCCTTTTTTGA [XGTACX_site5320] | 11.2 ± 0.52
4 | CAAAATATTATCATGATGCACTTTACACTCTAAGGT | 9.97
5 | AAAAAATAAAAGTGGGGTACATGTCATTATGTGCAT [XGTACX_site3753] | 11.4 ± 0.84
6 | AGGCCTTTTAGTATTTCACACACGTAAATGTGTATA [CACACA_site8284] | 10.02 ± 0.049
7 | ATTTGTTTAAGTCACGAACACACATATATCATCAAT [CACACA_site985] | 10.2 ± 0.19
8 | ATTATTTACCACAACACACAAATATTTACCAATCAT [CACACA_site5472] | 10.3 ± 0.18
9 | AATATATACATACATACATGCACATATATATATATA [TGCATGCA_site393] | 10.2 ± 0.31
10 | AAATAGTTGTTATGGGTGCAAACCACATATATATAA [GTGCAC_site9428] | 10.3 ± 0.28
11 | GTTTATTAGGAATTATGTACACAGTTTTATAAAGAA [XGTACX_site2994] | 11.5 ± 1
12 | AATATAATATATTGCACACAAAAAGTGAATTATTCT [CACACA_site1684] | 10.12 ± 0.085
13 | TTGCAGTATTTCGGAACACACAAACATAAATATGTA [CACACA_site5307] | 10.2 ± 0.3
14 | AAATTAAATGTAAGCACACATAAATTATACGCATAT [CACACA_site3335] | 10.145 ± 0.007
15 | ACATTGAATAAATAATGTACATATATAATATATATT [XGTACX_site95] | 11.1 ± 0.6
16 | ATTATATTATATTATACATGCATAATATTATATAAA [TGCATGCA_site647] | 9.7 ± 0.2
17 | TTATTACACAAATGGTGTACTTTTGAGGAACCAAAA [XGTACX_site4279] | 11.6 ± 0.92
18 | AAATATTATTCATTTTGTACGTATAATTTTTAATGA [XGTACX_site3509] | 11.5 ± 0.83
19 | GATCTTTCACATATATATATAAAGGATATTATGGTA [CACACA_negctrl_site522] | 9.9 ± 0.12

Row | Sequence | gcPBM binding intensity (ln)
20 | AGTAGTCTGGAGAAAAGTACACAGTATCTGGTAGCT [XGTACX_site2544] | 11.6 ± 1
21 | TATAATAATCCACAAGCACACACACCCACATATATA [CACACA_site8343] | 10.4 ± 0.38
22 | TTTTTTTTTTTTTACACACCCAAATCACATACATAT [CACACA_site6089] | 10.4 ± 0.49
23 | TATGCATATACACAAGCACACATATATATATATATA [CACACA_site8266] | 10.1 ± 0.24
24 | AAAAAAAAAAAAAAAAAAACTAATATAATAAAAATA [TGCATGCA_negctrl_site150] | 10.5 ± 0.33
25 | AAAAAAATAATATAATATTAAATCTTAGTTAATAAA [GTGCAC_negctrl_site658] | 9.68 ± 0.26
26 | TGTAATTTTTTACGTTGTACATATATTAACAATATA [XGTACX_site3991] | 11.1 ± 0.83
27 | ATATTATATTTACATAGTACACTATATGTATATATA [XGTACX_site2101] | 10.9 ± 0.69
28 | AACATCTTATCATCATGTACGAAGCAGTTTTATAAG [XGTACX_site2490] | 10.7 ± 0.45
29 | TATAATAAATATACTGGTACACAAATATATATATTT [XGTACX_site7741] | 11.3 ± 0.81
30 | TTACATATTTTCATTTGTACATATTCATTTTTTTTC [XGTACX_site6988] | 10.7 ± 0.38
31 | AAATAACCCACGTGCATGCACTTCAATAACTGAACT | 10.3 ± 0.28
32 | TAAAAAAGAAAAAGAGCACACAAAAATATTTAACCT [CACACA_site8885] | 10.12 ± 0.078
33 | TATATATTTATATATTGTACACTCTTATGTAGTGTA [XGTACX_site210] | 10.8 ± 0.81
34 | ATTTTTATATTTAATACACACATAAAATCATACCAT [CACACA_site23] | 10.3 ± 0.33
35 | ATGTCAGGGAAAAAAACACACAAGAGTATGATATGT [CACACA_site2180] | 10.03 ± 0.071
36 | TTTTCCCTTTTTTCCGCACACAATAAAATAAATAAA [CACACA_site2807] | 10.3 ± 0.53
37 | TACCATAATCAATGCACACATAACAAAATATTATTA [CACACA_site2722] | 9.96 ± 0.16
38 | TGTAATAAAATAATTAGTACACATATATGTATATTT [XGTACX_site5896] | 11.4 ± 0.93

Row | Sequence | gcPBM binding intensity (ln)
39 | TGGTATATACGACACACACACATATGTATAAATATA [CACACA_site6561] | 10.41 ± 0.049
40 | TATTTTTAAAAGTTAACAGAAAAAATATAAATAAAT [GTGCAC_negctrl_site295] | 10.1 ± 0.32
41 | ATATATATATATTTTACACACAATGGAGAAAAAAAT [CACACA_site644] | 10.2 ± 0.22
42 | TTTATCATGAACAGAAGTACATTTATATCAATGTCT [XGTACX_site6470] | 11.1 ± 0.84
43 | ATATATATATAATGTTGTACGTTTTATTCTCCCATT [XGTACX_site8071] | 11.4 ± 0.81
44 | TTTACACTTTTTTTTGTACACACTAAAAAGATTAAC [CACACA_site3933] | 11.4 ± 0.91
45 | AGGGCATATATATATGCACACATACATATATACATG [CACACA_site9282] | 10 ± 0.028
46 | AATATTATGATATTATGTACATATTAAAAGCACCAC [XGTACX_site6236] | 11.3 ± 0.72
47 | TGTTGTTACCTATATACACACATATAAATATTATAG [CACACA_site7180] | 10.4 ± 0.37
48 | AAAAAAAAAAAAAAAACACACAAGGATCAGATAGAT [CACACA_site7743] | 10.2 ± 0.18
49 | TTTTTCAGAAAAGAAACACACATATAAATATTTATA [CACACA_site7170] | 9.955 ± 0.021
50 | GTTAAACATCTTCTGTGATATGTTAGAATATTATTT [CACACA_negctrl_site687] | 9.64 ± 0.11
51 | TTTTTTTTCTATTGAGCACACATATCACGATTAGTA [CACACA_site7992] | 10.3 ± 0.35
52 | TTTATTAAATATATATGTACATATCAAAATGTATAA [XGTACX_site3181] | 11.1 ± 0.66
53 | TATTTCACAAACCTTACATGCGGTTTATTTATATAT [TGCATGCA_site123] | 9.72 ± 0.45
54 | ATAATTTATATCATTACACACATTTTTTATATTTTT [CACACA_site3450] | 9.77 ± 0.13
55 | TAGTTACATAAAATATGTACGTATAATTTTTTTATT [XGTACX_site3847] | 11.5 ± 0.92
56 | TTTTTGAATGTTTGCACACAAATCTCATAATTTTAG [CACACA_site357] | 9.955 ± 0.049
57 | TAACCAAAAAAAAATATTTAAAATAAATATATATAT [CACACA_negctrl_site1516] | 9.87 ± 0.58
